Measured values: article PMC5382322
These are yes or no findings as the source states them, for the method shown. In cells and extracts the contact can be indirect. Some binding calls cover weakened binding; strength is not graded here. For some of these results: Where a sequence is shown, tags or fusion partners need not be part of it.

Chains of the proteins cited; added tags and fusions are not shown.
UniProt O97159: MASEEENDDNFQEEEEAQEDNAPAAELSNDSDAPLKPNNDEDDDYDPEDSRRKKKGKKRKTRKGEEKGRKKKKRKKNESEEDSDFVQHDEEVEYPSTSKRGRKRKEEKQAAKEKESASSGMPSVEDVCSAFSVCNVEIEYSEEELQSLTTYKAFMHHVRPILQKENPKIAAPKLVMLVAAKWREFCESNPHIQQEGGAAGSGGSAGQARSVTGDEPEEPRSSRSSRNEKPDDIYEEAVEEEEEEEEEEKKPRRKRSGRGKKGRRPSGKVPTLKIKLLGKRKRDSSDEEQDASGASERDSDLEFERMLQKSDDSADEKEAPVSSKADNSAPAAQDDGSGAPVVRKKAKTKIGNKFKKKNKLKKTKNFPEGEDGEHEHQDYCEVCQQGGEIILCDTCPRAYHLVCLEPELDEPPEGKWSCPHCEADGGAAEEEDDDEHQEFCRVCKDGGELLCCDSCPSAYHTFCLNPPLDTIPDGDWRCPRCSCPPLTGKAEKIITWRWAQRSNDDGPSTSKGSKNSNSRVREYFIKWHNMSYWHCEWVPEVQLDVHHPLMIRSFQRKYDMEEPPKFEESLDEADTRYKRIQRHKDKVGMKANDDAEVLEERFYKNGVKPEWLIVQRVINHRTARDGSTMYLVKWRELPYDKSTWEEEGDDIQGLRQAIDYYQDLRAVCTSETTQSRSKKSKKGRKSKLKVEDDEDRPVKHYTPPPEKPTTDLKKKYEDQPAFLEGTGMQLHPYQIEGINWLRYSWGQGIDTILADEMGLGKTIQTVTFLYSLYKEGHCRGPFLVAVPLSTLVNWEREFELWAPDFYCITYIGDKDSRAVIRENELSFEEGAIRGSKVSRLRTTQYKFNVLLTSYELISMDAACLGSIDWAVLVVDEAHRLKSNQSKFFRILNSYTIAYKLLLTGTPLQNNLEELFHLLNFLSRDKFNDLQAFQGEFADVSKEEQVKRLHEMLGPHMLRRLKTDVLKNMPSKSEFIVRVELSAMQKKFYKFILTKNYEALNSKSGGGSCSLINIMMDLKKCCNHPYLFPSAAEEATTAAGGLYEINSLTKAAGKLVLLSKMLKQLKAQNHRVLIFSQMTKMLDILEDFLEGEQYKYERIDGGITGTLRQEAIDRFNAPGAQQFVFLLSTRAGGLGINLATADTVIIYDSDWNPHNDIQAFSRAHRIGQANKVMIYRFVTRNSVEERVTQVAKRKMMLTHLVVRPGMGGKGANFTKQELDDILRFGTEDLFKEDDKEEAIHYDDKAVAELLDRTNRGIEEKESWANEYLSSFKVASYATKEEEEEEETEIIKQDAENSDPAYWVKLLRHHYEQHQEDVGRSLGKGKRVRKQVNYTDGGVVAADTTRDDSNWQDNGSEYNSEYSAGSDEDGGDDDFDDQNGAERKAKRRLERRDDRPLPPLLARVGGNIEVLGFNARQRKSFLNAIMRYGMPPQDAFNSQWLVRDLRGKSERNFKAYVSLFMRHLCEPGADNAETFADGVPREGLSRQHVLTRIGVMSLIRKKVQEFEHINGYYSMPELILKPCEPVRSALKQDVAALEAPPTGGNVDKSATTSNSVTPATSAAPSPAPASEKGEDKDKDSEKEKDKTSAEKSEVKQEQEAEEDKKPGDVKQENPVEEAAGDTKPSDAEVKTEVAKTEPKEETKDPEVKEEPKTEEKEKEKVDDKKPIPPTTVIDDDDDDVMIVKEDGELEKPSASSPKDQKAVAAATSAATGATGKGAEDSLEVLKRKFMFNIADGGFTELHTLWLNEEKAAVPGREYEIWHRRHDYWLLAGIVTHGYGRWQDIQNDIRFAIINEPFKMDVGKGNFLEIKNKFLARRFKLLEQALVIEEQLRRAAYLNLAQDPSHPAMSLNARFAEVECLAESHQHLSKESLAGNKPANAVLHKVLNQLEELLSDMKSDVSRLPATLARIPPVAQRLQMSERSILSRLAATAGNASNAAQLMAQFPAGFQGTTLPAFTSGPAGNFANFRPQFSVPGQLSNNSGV

Key:
[1] = target: dMi-2 (Drosophila Mi-2), endogenous (Drosophila (endogenous in S2 cells)) (UniProt O97159); test: co-IP; endogenous proteins; 500 ug S2 nuclear extract from untreated or ecdysone-exposed (20HE) cells; rat monoclonal anti-dMi-2 antibody 4D8 on Protein G Sepharose, 3 h at 4 °C; washed with buffer D (100 mM KCl) with 0.02% NP40; western blot
[2] = target: T1, N-terminally HA-tagged Ultraspiracle (HA-USP) (Drosophila) (UniProt P20153); test: co-IP; Sf9 cells co-infected with baculoviruses, untreated or exposed to ecdysone; whole-cell extract on HA agarose, 4 h at 4 °C; washed five times with Lysis Buffer (20 mM Hepes pH 7.6, 200 mM KCl, 0.1% NP40, 10% glycerol); western blot
T1 sequence: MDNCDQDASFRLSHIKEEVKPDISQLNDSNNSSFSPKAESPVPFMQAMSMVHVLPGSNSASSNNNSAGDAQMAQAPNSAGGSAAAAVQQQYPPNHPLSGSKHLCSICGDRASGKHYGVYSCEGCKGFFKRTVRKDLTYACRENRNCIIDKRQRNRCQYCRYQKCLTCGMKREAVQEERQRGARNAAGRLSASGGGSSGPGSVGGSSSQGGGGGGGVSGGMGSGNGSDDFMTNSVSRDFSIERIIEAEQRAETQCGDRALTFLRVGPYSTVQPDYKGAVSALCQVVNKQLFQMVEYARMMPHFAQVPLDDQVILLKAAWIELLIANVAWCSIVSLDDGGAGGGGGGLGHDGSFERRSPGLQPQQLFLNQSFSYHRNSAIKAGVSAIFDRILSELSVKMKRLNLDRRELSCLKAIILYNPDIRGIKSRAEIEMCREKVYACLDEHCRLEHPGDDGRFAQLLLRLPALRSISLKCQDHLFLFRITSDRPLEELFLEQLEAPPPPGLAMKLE

dMi-2-FLAG (Drosophila) = dMi-2-FLAG (Drosophila) (UniProt O97159); test: co-IP; Sf9 cells co-infected with baculoviruses, untreated or exposed to ecdysone; whole-cell extract on FLAG agarose, 4 h at 4 °C; washed five times with Lysis Buffer (20 mM Hepes pH 7.6, 200 mM KCl, 0.1% NP40, 10% glycerol); western blot
[3] = target: dMi-2-FLAG (Drosophila), O97159; test: as above; conditions: remark: other sources report otherwise

B1: ecdysone receptor (EcR), endogenous (receptor, UniProt P34021 1-878)
chain: MKRRWSNNGGFMRLPEESSSEVTSSSNGLVLPSGVNMSPSSLDSHDYCDQDLWLCGNESGSFGGSNGHGLSQQQQSVITLAMHGCSSTLPAQTTIIPINGNANGNGGSTNGQYVPGATNLGALANGMLNGGFNGMQQQIQNGHGLINSTTPSTPTTPLHLQQNLGGAGGGGIGGMGILHHANGTPNGLIGVVGGGGGVGLGVGGGGVGGLGMQHTPRSDSVNSISSGRDDLSPSSSLNGYSANESCDAKKSKKGPAPRVQEELCLVCGDRASGYHYNALTCEGCKGFFRRSVTKSAVYCCKFGRACEMDMYMRRKCQECRLKKCLAVGMRPECVVPENQCAMKRREKKAQKEKDKMTTSPSSQHGGNGSLASGGGQDFVKKEILDLMTCEPPQHATIPLLPDEILAKCQARNIPSLTYNQLAVIYKLIWYQDGYEQPSEEDLRRIMSQPDENESQTDVSFRHITEITILTVQLIVEFAKGLPAFTKIPQEDQITLLKACSSEVMMLRMARRYDHSSDSIFFANNRSYTRDSYKMAGMADNIEDLLHFCRQMFSMKVDNVEYALLTAIVIFSDRPGLEKAQLVEAIQSYYIDTLRIYILNRHCGDSMSLVFYAKLLSILTELRTLGNQNAEMCFSLKLKNRKLPKFLEEIWDVHAIPPSVQSHLQITQEENERLERAERMRASVGGAITAGIDCDSASTSAAAAAAQHQPQPQPQPQPSSLTQNDSQHQTQPQLQPQLPPQLQGQLQPQLQPQLQTQLQPQIQPQPQLLPVSAPVPASVTAPGSLSAVSTSSEYMGGSAAIGPITPATTSSITAAVTASSTTSAVPMGNGVGVGVGVGGNVSMYANAQTAMALMGVALHSHQEQLIGGVAVKSEHSTTA
For B1, the binding [1] was “binds”.

B2: untagged EcR (baculovirus-expressed) (receptor, UniProt P34021 1-878)
chain: MKRRWSNNGGFMRLPEESSSEVTSSSNGLVLPSGVNMSPSSLDSHDYCDQDLWLCGNESGSFGGSNGHGLSQQQQSVITLAMHGCSSTLPAQTTIIPINGNANGNGGSTNGQYVPGATNLGALANGMLNGGFNGMQQQIQNGHGLINSTTPSTPTTPLHLQQNLGGAGGGGIGGMGILHHANGTPNGLIGVVGGGGGVGLGVGGGGVGGLGMQHTPRSDSVNSISSGRDDLSPSSSLNGYSANESCDAKKSKKGPAPRVQEELCLVCGDRASGYHYNALTCEGCKGFFRRSVTKSAVYCCKFGRACEMDMYMRRKCQECRLKKCLAVGMRPECVVPENQCAMKRREKKAQKEKDKMTTSPSSQHGGNGSLASGGGQDFVKKEILDLMTCEPPQHATIPLLPDEILAKCQARNIPSLTYNQLAVIYKLIWYQDGYEQPSEEDLRRIMSQPDENESQTDVSFRHITEITILTVQLIVEFAKGLPAFTKIPQEDQITLLKACSSEVMMLRMARRYDHSSDSIFFANNRSYTRDSYKMAGMADNIEDLLHFCRQMFSMKVDNVEYALLTAIVIFSDRPGLEKAQLVEAIQSYYIDTLRIYILNRHCGDSMSLVFYAKLLSILTELRTLGNQNAEMCFSLKLKNRKLPKFLEEIWDVHAIPPSVQSHLQITQEENERLERAERMRASVGGAITAGIDCDSASTSAAAAAAQHQPQPQPQPQPSSLTQNDSQHQTQPQLQPQLPPQLQGQLQPQLQPQLQTQLQPQIQPQPQLLPVSAPVPASVTAPGSLSAVSTSSEYMGGSAAIGPITPATTSSITAAVTASSTTSAVPMGNGVGVGVGVGGNVSMYANAQTAMALMGVALHSHQEQLIGGVAVKSEHSTTA
In the case of B2, the binding [2] is reported as “binds” and the binding (dMi-2-FLAG (Drosophila)) is reported as “binds”.

B3: N-terminally HA-tagged Ultraspiracle (HA-USP), P20153 1-508 (receptor)
chain: MDNCDQDASFRLSHIKEEVKPDISQLNDSNNSSFSPKAESPVPFMQAMSMVHVLPGSNSASSNNNSAGDAQMAQAPNSAGGSAAAAVQQQYPPNHPLSGSKHLCSICGDRASGKHYGVYSCEGCKGFFKRTVRKDLTYACRENRNCIIDKRQRNRCQYCRYQKCLTCGMKREAVQEERQRGARNAAGRLSASGGGSSGPGSVGGSSSQGGGGGGGVSGGMGSGNGSDDFMTNSVSRDFSIERIIEAEQRAETQCGDRALTFLRVGPYSTVQPDYKGAVSALCQVVNKQLFQMVEYARMMPHFAQVPLDDQVILLKAAWIELLIANVAWCSIVSLDDGGAGGGGGGLGHDGSFERRSPGLQPQQLFLNQSFSYHRNSAIKAGVSAIFDRILSELSVKMKRLNLDRRELSCLKAIILYNPDIRGIKSRAEIEMCREKVYACLDEHCRLEHPGDDGRFAQLLLRLPALRSISLKCQDHLFLFRITSDRPLEELFLEQLEAPPPPGLAMKLE
For B3, the binding [3] was “no binding”.
